According to paper PMC4336329 (PLoS ONE, 2015):
The campaign covered roughly 310,000 compounds. About 14,000 (4.5%) showed an effect of 50% or more. Effects have a minus sign here. This is one part of the list.

Target: human ether-à-go-go-related gene (hERG) potassium channel (human, UniProt Q12809)
Test: primary screen, population patch clamp on CHO cells stably expressing hERG
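Further: peak tail current of the secondary pulse compared with the same well before compound.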

Sequence of human ether-à-go-go-related gene (hERG) potassium channel (Q12809 whole entry, looked up): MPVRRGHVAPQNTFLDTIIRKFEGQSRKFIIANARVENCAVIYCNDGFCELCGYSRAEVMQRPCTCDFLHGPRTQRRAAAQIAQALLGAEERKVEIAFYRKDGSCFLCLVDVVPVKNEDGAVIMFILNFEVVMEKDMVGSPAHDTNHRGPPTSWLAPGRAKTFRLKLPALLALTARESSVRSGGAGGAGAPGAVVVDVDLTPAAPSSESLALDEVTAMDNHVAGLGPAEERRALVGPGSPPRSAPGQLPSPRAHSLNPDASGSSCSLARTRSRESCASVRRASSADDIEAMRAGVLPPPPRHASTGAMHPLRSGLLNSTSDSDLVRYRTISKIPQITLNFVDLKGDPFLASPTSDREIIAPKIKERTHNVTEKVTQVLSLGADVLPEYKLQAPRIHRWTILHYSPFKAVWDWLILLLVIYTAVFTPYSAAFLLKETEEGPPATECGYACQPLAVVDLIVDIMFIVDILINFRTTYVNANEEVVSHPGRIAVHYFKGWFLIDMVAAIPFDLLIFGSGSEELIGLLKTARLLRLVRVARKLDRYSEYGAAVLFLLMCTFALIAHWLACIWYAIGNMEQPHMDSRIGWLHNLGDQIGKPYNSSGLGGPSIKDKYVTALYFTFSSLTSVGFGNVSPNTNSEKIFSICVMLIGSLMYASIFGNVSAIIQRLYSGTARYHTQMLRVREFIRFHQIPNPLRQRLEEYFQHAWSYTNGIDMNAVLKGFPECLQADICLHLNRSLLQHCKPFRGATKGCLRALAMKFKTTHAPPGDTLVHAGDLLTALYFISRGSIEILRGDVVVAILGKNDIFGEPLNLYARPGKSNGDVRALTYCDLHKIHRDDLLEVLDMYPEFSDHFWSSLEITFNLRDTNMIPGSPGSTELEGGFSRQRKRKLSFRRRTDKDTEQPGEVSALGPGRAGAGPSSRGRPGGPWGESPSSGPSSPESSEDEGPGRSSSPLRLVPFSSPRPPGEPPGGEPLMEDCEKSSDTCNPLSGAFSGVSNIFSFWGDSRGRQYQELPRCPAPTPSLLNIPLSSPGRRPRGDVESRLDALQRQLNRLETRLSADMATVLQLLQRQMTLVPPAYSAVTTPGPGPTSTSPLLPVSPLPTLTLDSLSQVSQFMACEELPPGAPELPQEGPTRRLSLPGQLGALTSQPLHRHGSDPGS

| Structure (SMILES) | hERG current change (%, negative = inhibition) at 10uM |
| --- | --- |
| Cc1ccc(-c2nc3c(c(=O)[nH]c(=O)n3CC(C)C)n2CC(C)C)cc1[N+](=O)[O-] | -7.7% |
| CCOc1ccccc1NC(=O)c1cccc(NC(=O)C2CCCC2)c1 | -1.34% |
| C[C@]12CCC3C(CC=C4C[C@@H](O)CC[C@@]43C)C1CCC2[C@]1(C)CCC(=O)O1 (stereo partly shown) | 3.21% |
| CC(=O)Nc1ccc(SCC(=O)N2CCN(S(=O)(=O)c3ccccc3)CC2)cc1 | -19% |
| CSc1sc(C(=O)N(C)C)c2c1S(=O)(=O)N(C)c1ccccc1-2 | -2.27% |
| O=C1CCc2cc(S(=O)(=O)N3CCC(C(=O)NC4CCCc5ccccc54)CC3)ccc2N1 (stereo not shown) | 10.8% |
| Cc1c(NC(=O)c2cccs2)cccc1[N+](=O)[O-] | 17.3% |
| Cc1ccc(C)c(NC(=O)CN(C)S(=O)(=O)c2ccccc2)c1 | -11.2% |
| CCCCN(Cc1ccccc1)S(=O)(=O)c1ccc2c(c1)n(C)c(=O)c(=O)n2C | 2.68% |
| O=C(NCCc1c[nH]c2ccccc12)c1ccco1 | 3.71% |
| Cc1cc(/C=C2/C(=N)N3C(c4ccccc4)=CSC3=NC2=O)c(C)n1-c1ccccc1 | -46.6% |
| O=C(NCc1ccco1)/C(=C\C=C\c1ccccc1)NC(=O)c1ccccc1Br | -70.5% |
| Cc1ccc(S(=O)(=O)N2CCN(C(=O)C3CC(=O)N(c4ccc5c(c4)OCCO5)C3)CC2)cc1 (stereo not shown) | -10.6% |
| O=C(C1CC1)N1N=C(c2ccc(Br)cc2)CC1(O)C(F)(F)F (stereo not shown) | 3.54% |
| Cc1cccc(OCCCCc2c(C)n[nH]c2C)c1C | 9.64% |
| CN(CC(=O)Nc1cccc(C(F)(F)F)c1)Cc1ccccc1 | 14.8% |
| C/C(=N\NC(=O)c1ccc(Cl)cc1)c1ccc(N2CCOCC2)cc1 | 16.9% |
| COc1ccc(CCNCc2cccn2C)cc1.Cl | -9.38% |
| CCn1cc(C(=O)NCC2CCCO2)c(=O)c2cc(S(=O)(=O)N3CCC(C)CC3)ccc21 (stereo not shown) | -28.1% |
| COc1ccccc1NC(=O)Cn1cncc1-c1ccc([N+](=O)[O-])cc1 | 2.57% |
| COc1ccc(NC(=O)c2cc(Cl)ccc2Cl)c([N+](=O)[O-])c1 | -1.18% |
| CC(C)[C@H](N[C@@H](C)c1ccccc1)c1c(O)ccc2ccccc12 | 13.4% |

| Structure (SMILES) | hERG current change (%, negative = inhibition) at 10uM |
| --- | --- |
| COc1ccc2[nH]c(-c3cccc(F)c3)cc(=O)c2c1 | 18.8% |
| COc1cccc(/C=C2/NC(=O)N(CC(=O)Nc3ccc(C)cc3)C2=O)c1OCc1cccc(C(=O)O)c1 | 22.7% |
| Cn1cccc1C(=S)N1CCOCC1 | 0.689% |
| O=c1c2c3c(sc2nc2n1CCCCC2)CCCC3 | -9% |
| CC1CC2C3CCC4=CC(=O)C=CC4(C)[C@@]3(Cl)C(O)CC2(C)C1(O)C(=O)CO (stereo partly shown) | 17.1% |
| CC1Cc2nc(SCC(=O)Nc3ccc(F)cc3)n(C)c(=O)c2S1 (stereo not shown) | -11% |
| COCCNC(=O)c1ccccc1N(Cc1ccccc1)S(=O)(=O)c1ccc(C)cc1 | -4.33% |
| O=C(Nc1ccccc1C(=O)Nc1ccncc1)c1ccccc1 | 8.73% |
| Cc1c(NC(=O)C2(C)CCCCC2)c(=O)n(-c2ccccc2)n1C | 6.22% |
| Oc1ccc(CCNc2ncnc3ccc(Cl)cc23)cc1 | -26.4% |
| COc1ccc(CCNC(=O)CCCOc2cccc(C)c2C)cc1OC | -16% |
| Cn1cccc1/C=N/NC(=O)c1sc2ccccc2c1Cl | -6.61% |
| O=C(Nc1ccc(F)cc1)/C(Cl)=C/c1ccccc1 | 2.7% |
| O=C(Nc1ccc2c(c1)OCCO2)c1ccc(Br)o1 | -1.76% |
| COc1cc(C(=O)N2CCCN(C)CC2)cc(OC)c1C.Cl | 17.6% |
| COC/C=C/C1=CC2=CC(=O)C(C)(OC(=O)c3cnc4ccccc4n3)C(=O)C2=CN1Cc1ccccc1 (stereo not shown) | -9.89% |
| CCN(CC)CCCN(C(=O)c1cccc(C)c1)c1nc(-c2ccc(OC)cc2)cs1 | -78.2% |
| Cn1c(SCC(=O)Nc2ccc(F)cc2)nnc1-c1cccnc1 | -11.5% |
| CCNC(=S)N(CCc1cccc(C)c1)Cc1cc2cc(OC)c(OC)cc2[nH]c1=O | -22.4% |
| COc1ccc(S(=O)(=O)N2CCC(C(=O)N3CCN(c4ccccc4OC)CC3)CC2)cc1 | -7.06% |
| CC(=O)Nc1ccc(S(=O)(=O)N(C)c2ccccc2)cc1 | 0.318% |
| CCOC(=O)c1c(-c2ccccc2)csc1NC(=O)CSc1nc(N)cc(N)n1 | 11% |

| Structure (SMILES) | hERG current change (%, negative = inhibition) at 10uM |
| --- | --- |
| COC(=O)c1ccc(COc2ccccc2/C=C(\C#N)C(=O)NC(C)C)cc1 | -11.8% |
| O=C1CCN(Cc2ccccc2)C(=O)N1c1ccccc1 | 1.55% |
| CN(C)CCNC(=O)c1ccc2c(c1)NC(=O)c1ccccc1S2 | 17.3% |
| COc1cccc(CN2C(=O)C3CCCN3c3ccc(S(=O)(=O)N4CCOCC4)cc32)c1 (stereo not shown) | 5.87% |
| Nc1ncccc1OCc1ccc(Br)cc1 | -15.9% |
| Cc1c(NC(=O)C(C)OC(=O)CCc2c[nH]c3ccccc23)c(=O)n(-c2ccccc2)n1C (stereo not shown) | 17.2% |
| CC(=O)C1=C(O)C(=O)N(c2ccc(F)cc2)C1c1ccc(C)cc1 (stereo not shown) | 20.5% |
| Cc1ccc(C(=O)NN2C(=O)C3C4C=CC(C5CC45)C3C2=O)cc1 (stereo not shown) | 5.3% |
| COc1ccc(-c2noc(-c3ccccc3C(=O)Nc3cccc(OC)c3)n2)cc1 | 2.25% |
| Cc1csc(SCc2ccccc2C(=O)O)n1 | 9.92% |
| O=[N+]([O-])c1ccc(-c2nnc(-c3ccccc3)c(N3CCOCC3)n2)cc1 | -15.9% |
| CN(C)S(=O)(=O)c1ccc(N2CCCC2)c(C(=O)NCC2COc3ccccc3O2)c1 (stereo not shown) | -30.8% |
| CCOC(=O)COc1ccc2c3c(c(=O)oc2c1C)CCC3 | 17.1% |
| CCOC(=O)c1c(NC(=O)CSc2nncs2)sc(C)c1-c1ccccc1 | -3.83% |
| COc1ccc(-c2c3c(=O)n(C)c(=O)n(C)c3cn2N2CCOCC2)cc1 | -52.3% |
| CC(C)c1ccc(N2C(=O)CSC23C(=O)N2CCCc4cccc3c42)cc1 (stereo not shown) | 10.2% |
| Cc1c(Cl)c([N+](=O)[O-])nn1CCCC(=O)NC1CCCCC1 | -10.9% |
| CC1CN(c2nn3c(=O)c4ccccc4nc3c3ccccc23)CC(C)O1 (stereo not shown) | -25.7% |
| CCCCN1C2CCCC1CC(NC(=O)C1CCCCC1)C2 (stereo not shown) | -16.9% |
| CC(C)(C)OC(=O)NCC12C=CC(O1)C1C(=O)N(Cc3ccccc3)C(=O)C12 (stereo not shown) | 3.06% |
| COc1ccc(S(=O)(=O)N(CC(=O)NCc2ccco2)c2ccc(C)cc2)cc1OC | 8.64% |
| O=C(CSc1n[nH]c(-c2ccco2)n1)Nc1ccccc1 | -20.4% |

| Structure (SMILES) | hERG current change (%, negative = inhibition) at 10uM |
| --- | --- |
| CCN(CC)S(=O)(=O)c1ccc2c(c1)N(CC(=O)NCCN1CCOCC1)C(=O)CO2 | 15% |
| Cc1ccc(N(C(=O)c2csnn2)C(C(=O)NC2CCCCC2)c2cccnc2)cc1 (stereo not shown) | -8.51% |
| Cc1ccc(CNC(=O)COC(=O)c2cc(C)oc2C)cc1 | 9.96% |
| Cc1cccc(NC(=S)N2CCN(c3ccccc3F)CC2)c1C | 10.2% |
| CCC1CCCCN1C(=O)CSc1nc(N)cc(N)n1 (stereo not shown) | 49.9% |
| O=C(c1ccc(Cn2c(=O)[nH]c3ccccc3c2=O)cc1)N1CCN(c2ccc(Cl)cc2)CC1 | 0.857% |
| CCCOC(=O)c1[nH]c2c(c1C)C(=O)CC(c1cc(OC)c(OC)c(OC)c1)C2 (stereo not shown) | 1.17% |
| COC(=O)C(CC(C)C)NC(=O)CNC(=O)c1ccccc1C (stereo not shown) | 3.34% |
| Cl.Clc1ccccc1CNC1CN2CCC1CC2 (stereo not shown) | -3.27% |
| Cc1cccc(N/N=C/c2ccncc2)c1 | -1.3% |
| OCC[C@H]1C[C@H](O)[C@@H](O)[C@]2(CCCCO2)O1 | -6.39% |
| O=C1CCC([N+](=O)[O-])C(c2ccc(C(F)(F)F)cc2)N1 (stereo not shown) | 9.34% |
| Cc1onc(-c2c(Cl)cccc2Cl)c1C(=O)NC1CCCCC1 | 0.0692% |
| O=C(c1ccc(F)cc1)N1CCCC(c2nc(-c3cccs3)no2)C1 (stereo not shown) | -18.5% |
| C=CCn1cnc2c(sc3nc(C)cc(C)c32)c1=O | -6.75% |
| O=C(NCC1CCCO1)C(C(=O)c1ccccc1)n1ccccc1=O (stereo not shown) | 2.74% |
| CC12CCC(C(=O)N3CCN(C(c4ccccc4)c4ccccc4)CC3)(OC1=O)C2(C)C (stereo not shown) | -0.0815% |
| O=C(Nc1ccon1)c1csc2c1CCCC2 | -17.9% |
| CC(C)C(=O)Nc1cccc(NC(=O)c2cccnc2)c1 | -2.96% |
| CCCc1nnc(NC(=O)COC(=O)c2cc(C)nc3ccccc23)s1 | -10.5% |
| COC(=O)Nc1ccc(S(=O)(=O)N(C)CC(F)(F)C(F)F)cc1 | -9.74% |
| O=S(=O)(c1ccc(Cl)cc1Br)N1CCCCC1 | -26.7% |
